# Experimental data published in ChEMBL document CHEMBL1201862, “PubChem BioAssay data set” (2004).
#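 Cultured in 96-well plates, cells were exposed to test compound for 48 hours across five concentrations. Abbreviation: GI50, concentration required for 50% inhibition of growth.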 Active and inactive are the calls of the source. No stated cut-off is given here; in the data, active = GI50 up to about 1.1 µM and inactive = higher.
# Test system: NCI-H322M
# Experiment: growth of human tumour cells (NCI), 48 h
row,Compound,GI50
1,O=C(NC(=S)Nc1ccc(Br)cc1)c1ccc2c(c1)Sc1ccccc1O2,inactive: > 100 µM
2,COc1ccc(/C=C(/C)[N+](=O)[O-])cc1,inactive: 3.75 µM
3,CCN(CC)CCOc1ccc(C(O)(Cc2ccc(OC)cc2)c2ccccc2)cc1 (centres undefined),inactive: 35.6 µM
4,CCCCCCCCCCCCCCCCCCNc1ccn(C2OC(COP(=O)(O)OCC3CCC(n4cnc5c(=O)[nH]cnc54)O3)C(O)C2O)c(=O)n1 (centres undefined),inactive: 52.6 µM
5,CCN(CC)Cc1ccc(C(=S)Nc2ccc(Cl)cc2)s1,inactive: 11.4 µM
6,CC1=NOC2(C1)/C(=N/O)CCC/C2=N\O (centres undefined),inactive: 95.3 µM
7,CC(C)(C)C1=CC(=C2C=Cc3cc(O)ccc3O2)C=C(C(C)(C)C)C1=O,inactive: 1.86 µM
8,CC[C@@]1(O)C(=O)OCc2c1cc1n(c2=O)Cc2c-1nc1ccc(O)cc1c2CC[Si](C)(C)C,active: 0.0254 µM
9,CCOC(=O)c1cn(Cc2ccccc2)c(=O)n1Cc1ccccc1,inactive: > 100 µM
10,O=S(O)CCCCCSSc1ccccc1,inactive: > 100 µM
11,C[C@H]1CC[C@@]2(OC1)O[C@H]1C[C@H]3[C@@H]4CC[C@@H]5C[C@@H](OC6OC(CO)C(O)C(O)C6OC6OC(CO)C(O)C(O)C6O)CC[C@]5(C)[C@H]4CC[C@]3(C)[C@H]1[C@@H]2C (some centres undefined),inactive: 1.93 µM
12,CN1CC=C(OP(=O)(NCc2ccccc2)N(CCCl)CCCl)CC1 (centres undefined),inactive: > 100 µM
13,Cc1ccsc1/C=N/Nc1nc2ccccc2s1,inactive: 21.8 µM
14,C#CCN(N=O)C(=O)NC(CCCNC(=O)OCc1ccccc1)C(=O)OCc1ccccc1 (centres undefined),inactive: > 100 µM
15,CC(=O)OC(C)C(=O)C1c2cccc(O)c2C(=O)c2c(O)cc(C)cc21 (centres undefined),active: 0.407 µM
16,Cc1ccc(C)c(NC(=O)CC/C(=N\NC(=O)C(N)=O)C(C)C(=O)c2ccc(O)cc2)c1 (centres undefined),inactive: > 100 µM
17,Nc1c(F)c(F)c2c(c1F)N(CCCCCl)c1ccccc1S2,inactive: > 100 µM

row,Compound,GI50
1,O=c1c2ccccc2c(=O)c2c1cc(Cl)c1[nH]c3c([nH]c12)c(Cl)cc1c(=O)c2ccccc2c(=O)c13,inactive: > 100 µM
2,COC(=O)C1(Cc2ccccc2)Cc2c(C)ccc(C)c2C1=O (centres undefined),inactive: 28.3 µM
3,O=C(O)C(O)C(O)C(O)C(=O)CO (centres undefined),inactive: > 100 µM
4,CCOC(=O)CNc1nnnn1C1OC(CO)C(O)C1O (centres undefined),inactive: > 100 µM
5,COc1ccc(C2C(Cl)C(=O)N2n2cnc3ccccc3c2=O)cc1OC (centres undefined),inactive: > 100 µM
6,CC(C)(C)c1ccccc1N1C(=O)c2ccc3c4c(ccc(c24)C1=O)N(c1ccccc1C(C)(C)C)C3=O,inactive: > 100 µM
7,COc1nc2ncc([C@@H](O)[C@H](O)CO)nc2c(=O)[nH]1,inactive: > 100 µM
8,O=c1c(Cl)c(Cl)c(=O)c2sc3cc(Cl)ccc3[nH]c1=2,inactive: 94.2 µM
9,C(=C\c1ccc(-c2cn3cc(/C=C/C=N/NC4=NCCN4)ccc3n2)cc1)/C=N/NC1=NCCN1,inactive: 1.95 µM
10,O=P(c1ccccc1)(c1ccccc1)C(NCc1ccccc1)c1ccc(F)cc1 (centres undefined),inactive: 14.9 µM
11,CNC(=O)CN(CC(N)=O)C(=O)NC,inactive: > 100 µM
12,Cn1cc2ccccc2c1-c1nc(F)nc(Oc2ccc3c(c2)CC[C@@H]2C3CC[C@@]3(C)C2CC[C@@H]3O)n1 (some centres undefined),inactive: 35.6 µM
13,Cn1cc(NC(=O)Nc2cc(C(=O)Nc3cc(C(=O)Nc4ccc(S(=O)(=O)O)c5cc(S(=O)(=O)O)ccc45)n(C)c3)n(C)c2)cc1C(=O)Nc1cc(C(=O)Nc2ccc(S(=O)(=O)O)c3cc(S(=O)(=O)O)ccc23)n(C)c1,inactive: > 100 µM
14,COC(=O)NC1=NNC(=O)c2ccccc2N1,inactive: > 100 µM
15,CC(C)C1=CC2=C(C(=O)C1=O)C13CCCC(C)(C)C1CC2OC3=O (centres undefined),inactive: 39.6 µM
16,COC(=O)c1ccccc1C1CN=NC12Cc1ccccc1C2=O (centres undefined),inactive: > 100 µM
17,CC12CCC3C(CCC4=CC(O)CCC43C=O)C1(O)CCC2c1ccc(=O)oc1 (centres undefined),active: 0.0153 µM
